Measurements reported in the supplement of paper PMC8728848.
The other results are listed elsewhere or left out.

How the values were obtained:
Assay in all cases: glycan array binding signal (z-score within array); higher = stronger binding
Conditions in all cases: glycan notation: IUPAC condensed, linker removed
[1] = biological target: Gal(b1-4)GlcNAc(b1-3)Gal(b1-4)GlcNAc(b1-3)Gal(b1-4)GlcNAc(b1-3)Gal(b1-4)GlcNAc(b1-2)Man(a1-3)[Gal(b1-4)GlcNAc(b1-3)Gal(b1-4)GlcNAc(b1-3)Gal(b1-4)GlcNAc(b1-3)Gal(b1-4)GlcNAc(b1-2)Man(a1-6)]Man(b1-4)GlcNAc(b1-4)[Fuc(a1-6)]GlcNAc
Summary of the method: (§1)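 The Consortium for Functional Glycomics database supplied 3228 glycan arrays, of which those lacking an available protein sequence were dropped. The binding signal, a within-array Z-score, was averaged across arrays of the same protein sequence and across linkers. Negative scores can be read as non-binding.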

[2] = biological target: Gal(b1-4)GlcNAc(b1-3)Gal(b1-4)GlcNAc(b1-3)Gal(b1-4)GlcNAc(b1-3)Gal(b1-4)GlcNAc(b1-2)[Gal(b1-4)GlcNAc(b1-3)Gal(b1-4)GlcNAc(b1-3)Gal(b1-4)GlcNAc(b1-3)Gal(b1-4)GlcNAc(b1-6)]Man(a1-6)[Gal(b1-4)GlcNAc(b1-3)Gal(b1-4)GlcNAc(b1-3)Gal(b1-4)GlcNAc(b1-3)Gal(b1-4)GlcNAc(b1-2)Man(a1-3)]Man(b1-4)GlcNAc(b1-4)[Fuc(a1-6)]GlcNAc
Summary of the method: as §1

[3] = biological target: Gal(b1-4)GlcNAc(b1-3)Gal(b1-4)GlcNAc(b1-3)Gal(b1-4)GlcNAc(b1-3)Gal(b1-4)GlcNAc(b1-3)Gal(b1-4)GlcNAc(b1-2)Man(a1-3)[Gal(b1-4)GlcNAc(b1-3)Gal(b1-4)GlcNAc(b1-3)Gal(b1-4)GlcNAc(b1-3)Gal(b1-4)GlcNAc(b1-3)Gal(b1-4)GlcNAc(b1-2)Man(a1-6)]Man(b1-4)GlcNAc(b1-4)GlcNAc
Summary of the method: as §1

[4] = biological target: Gal(b1-4)GlcNAc(b1-3)Gal(b1-4)GlcNAc(b1-3)Gal(b1-4)GlcNAc(b1-3)Gal(b1-4)GlcNAc(b1-3)Gal(b1-4)GlcNAc(b1-2)Man(a1-3)[Gal(b1-4)GlcNAc(b1-3)Gal(b1-4)GlcNAc(b1-3)Gal(b1-4)GlcNAc(b1-3)Gal(b1-4)GlcNAc(b1-3)Gal(b1-4)GlcNAc(b1-2)Man(a1-6)]Man(b1-4)GlcNAc(b1-4)[Fuc(a1-6)]GlcNAc
Summary of the method: as §1

[5] = biological target: Gal(b1-4)GlcNAc(b1-3)Gal(b1-4)GlcNAc(b1-3)Gal(b1-4)GlcNAc(b1-3)Gal(b1-4)GlcNAc(b1-3)Gal(b1-4)GlcNAc(b1-2)[Gal(b1-4)GlcNAc(b1-3)Gal(b1-4)GlcNAc(b1-3)Gal(b1-4)GlcNAc(b1-3)Gal(b1-4)GlcNAc(b1-3)Gal(b1-4)GlcNAc(b1-6)]Man(a1-6)[Gal(b1-4)GlcNAc(b1-3)Gal(b1-4)GlcNAc(b1-3)Gal(b1-4)GlcNAc(b1-3)Gal(b1-4)GlcNAc(b1-3)Gal(b1-4)GlcNAc(b1-2)Man(a1-3)]Man(b1-4)GlcNAc(b1-4)[Fuc(a1-6)]GlcNAc
Summary of the method: as §1

[6] = biological target: Gal(b1-4)GlcNAc(b1-3)Gal(b1-4)GlcNAc(b1-3)Gal(b1-4)GlcNAc(b1-3)Gal(b1-4)GlcNAc(b1-3)Gal(b1-4)GlcNAc(b1-3)Gal(b1-4)GlcNAc(b1-2)Man(a1-3)[Gal(b1-4)GlcNAc(b1-3)Gal(b1-4)GlcNAc(b1-3)Gal(b1-4)GlcNAc(b1-3)Gal(b1-4)GlcNAc(b1-3)Gal(b1-4)GlcNAc(b1-3)Gal(b1-4)GlcNAc(b1-2)Man(a1-6)]Man(b1-4)GlcNAc(b1-4)GlcNAc
Summary of the method: as §1

[7] = biological target: Gal(b1-4)GlcNAc(b1-3)Gal(b1-4)GlcNAc(b1-3)GalNAc
Summary of the method: as §1

[8] = biological target: Gal(b1-4)GlcNAc(b1-3)Gal(b1-4)GlcNAc(b1-3)[Gal(b1-4)GlcNAc(b1-3)Gal(b1-4)GlcNAc(b1-6)]GalNAc
Summary of the method: as §1

[9] = biological target: Gal(b1-4)GlcNAc(b1-3)Gal(b1-4)GlcNAc(b1-6)[Gal(b1-3)]GalNAc
Summary of the method: as §1

[10] = biological target: Gal(b1-4)GlcNAc(b1-3)Gal(b1-4)[Fuc(a1-3)]GlcNAc(b1-3)Gal(b1-4)[Fuc(a1-3)]GlcNAc
Summary of the method: as §1

[11] = biological target: Gal(b1-4)GlcNAc(b1-3)GalNAc
Summary of the method: as §1

[12] = biological target: Gal(b1-4)GlcNAc(b1-3)[Fuc(a1-3)GlcNAc(b1-6)]Gal(b1-4)Glc
Summary of the method: as §1

[13] = biological target: Gal(b1-4)GlcNAc(b1-3)[Gal(b1-4)GlcNAc(b1-6)]Gal(b1-4)GlcNAc
Summary of the method: as §1

[14] = biological target: Gal(b1-4)GlcNAc(b1-3)[GlcNAc(b1-6)]Gal(b1-4)GlcNAc
Summary of the method: as §1

[15] = biological target: Gal(b1-4)GlcNAc(b1-6)Gal(b1-4)GlcNAc
Summary of the method: as §1

[16] = biological target: Gal(b1-4)GlcNAc(b1-6)GalNAc
Summary of the method: as §1

[17] = biological target: Gal(b1-4)GlcNAc(b1-6)[Gal(b1-3)]GalNAc
Summary of the method: as §1

[18] = biological target: Gal(b1-4)GlcNAc(b1-6)[Gal(b1-4)GlcNAc(b1-3)]GalNAc
Summary of the method: as §1

Gal(b1-4)GlcNAc6P = biological target: Gal(b1-4)GlcNAc6P
Summary of the method: as §1

Gal(b1-6)Gal = biological target: Gal(b1-6)Gal
Summary of the method: as §1

Gal3S(b1-3)GalNAc = biological target: Gal3S(b1-3)GalNAc
Summary of the method: as §1

Gal3S(b1-3)GlcNAc = biological target: Gal3S(b1-3)GlcNAc
Summary of the method: as §1

[19] = biological target: Gal3S(b1-3)[Fuc(a1-4)]GlcNAc
Summary of the method: as §1

B1: Pwp4 (Candida glabrata) (protein)
chain: MGSSHHHHHHSSGLVPRGSHMASVGNPITVSNVCSFPKNWHRTAGFRALTARLGIGIQSDSYKELLNYPGTFQLTTQQSSTTKPNFQISGLVGNIYGLTIVPSYLLVELTGYFVPPVSGEYTFSLEGSDDAAIIFIANPSTFKCGHVEDWPTAYDNDVTVTESIHATRTIYMIEGVAYPIRIAYYNGLSLGKLQASFTDPEGVKRVDWNGYIWRYDSCDTCSYV
In the case of B1, the “glycan array binding signal (z-score)” value [1] is reported as 0.224, the “glycan array binding signal (z-score)” value [2] is reported as 2.42 and the “glycan array binding signal (z-score)” value [3] is reported as 0.024. For the same binder, the “glycan array binding signal (z-score)” value [4] was 0.13, the “glycan array binding signal (z-score)” value [5] was 0.773 and the “glycan array binding signal (z-score)” value [6] was 3.83. For the same binder, the “glycan array binding signal (z-score)” value [7] was 0.024, the “glycan array binding signal (z-score)” value [8] was 0.004 and the “glycan array binding signal (z-score)” value [9] was 0.423. The “glycan array binding signal (z-score)” value [10] was 0.867, the “glycan array binding signal (z-score)” value [11] was 0.609 and the “glycan array binding signal (z-score)” value [12] was -0.674. For the same binder, the “glycan array binding signal (z-score)” value [13] was -0.442, the “glycan array binding signal (z-score)” value [14] was -0.151 and the “glycan array binding signal (z-score)” value [15] was 0.23. The “glycan array binding signal (z-score)” value [16] was -0.598, the “glycan array binding signal (z-score)” value [17] was -0.024 and the “glycan array binding signal (z-score)” value [18] was 0.033. The “glycan array binding signal (z-score)” value (Gal(b1-4)GlcNAc6P) was -0.44, the “glycan array binding signal (z-score)” value (Gal(b1-6)Gal) was 2 and the “glycan array binding signal (z-score)” value (Gal3S(b1-3)GalNAc) was -0.376. For the same binder, the “glycan array binding signal (z-score)” value (Gal3S(b1-3)GlcNAc) was -0.421 and the “glycan array binding signal (z-score)” value [19] was -0.233.
